# The campaign covered roughly 150,000 compounds. About 180 (0.12%) were called active. Inconclusive results, whose numbers are uncertain, are shown with a selection of clear calls. The call rests on the fitted dose curve; in most records, active means well fitted cell-killing curve with a large enough effect; inconclusive means small, poorly fitted or top-dose-only effect, or effect the other way; inactive means flat fitted curve, though single readings scatter. Where the call is inconclusive, the potency comes from a doubtful curve fit.
# Experiment: GF-AFC viability counterscreen for inhibitors of alpha-synuclein gene (SNCA) expression; further: nearly all actives have a fitted effect of over 30% in size;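 on activity change, negative = cytotoxicity: 0% = DMSO-treated cells and -100% = medium-only wells without cells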
# Details: HEK-293-SNCA-luc viability, GF-AFC fluorescence, 24 h; activity change, negative = cytotoxicity: at 57.1 µM (top of the series) unless noted
# Method in brief: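 Cytotoxicity counterscreen: after 24 h compound treatment of genome-edited SNCA-luciferase HEK-293 cells, live-cell protease substrate GF-AFC read by fluorescence after 30 min; activity scaled between DMSO (0%) and medium-only (-100%), curves Hill-fitted.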
# Potency means the concentration at half of the fitted maximal effect; tags describe the fitted curve by direction and shape.
Structure (SMILES),"activity change, negative = cytotoxicity",Potency
CN(C)c1cccc(-c2cc(-c3cn[nH]c3)c3cncn3c2)c1,inactive: -5.36% [at 87.6 µM],
CC(C)C[C@@H]1N[C@H](C(=O)NC2CCCC2)Cc2c[nH]c3cccc1c23,,"inconclusive: 56.2 µM [cytotoxic, single point]"
COc1ccccc1C1Nc2c(sc3nc(C)cc(C)c23)C(=O)N1c1ccccc1 (stereo not drawn),,"inconclusive: 22.4 µM [rising, single point]"
OCc1cc(C(O)CNCCCCCCOCCCCc2ccccc2)ccc1O (stereo not drawn),,"inconclusive: 14.1 µM [cytotoxic, partial curve, poor fit]"
COc1cc(CN2CCc3nn(C)c(=O)n3CC2)ccc1OC(C)C,inactive: 9.36%,
COc1ccc(-c2nc3cnc(Oc4cccc(Cl)c4)nc3n(CCC#N)c2=O)cc1,,"inconclusive: 39.8 µM [rising, single point]"
Cc1cn(CCn2ccnc2-c2nc[nH]c2C)nn1,,"inconclusive: 8.91 µM [cytotoxic, single point]"
COc1cc2nc(N3CCN(C)CC3)nc(NC3CCN(Cc4ccccc4)CC3)c2cc1OC,,"inconclusive: 16.8 µM [cytotoxic, partial curve, poor fit]"
Cc1noc(C)c1-c1nc(NCc2ccccc2)c2ccccc2n1,,"inconclusive: 3.55 µM [cytotoxic, full curve, poor fit]"
OCC1(Cc2ccccc2F)CCCN(c2nnnn2-c2ccccc2)C1 (stereo not drawn),,"inconclusive: 15.8 µM [rising, partial curve, poor fit]"
O=C(NC1CCN(C(=O)c2ccc(-c3cccs3)cc2)CC1)c1ccc(Cl)nc1,inactive: -4.2% [at 12.5 µM],
O=c1c(-c2ccc(F)cc2)nc2cnc(N3CCOCC3)nc2n1Cc1cccs1,,"inconclusive: 2.51 µM [rising, full curve, poor fit]"
COc1ccc(N(C(=O)c2cccc(C)c2)S(=O)(=O)c2ccc(C)cc2)cc1,,"inconclusive: 20 µM [cytotoxic, partial curve, poor fit]"
FC(F)(F)c1ccccc1-c1nc(Nc2ccncc2)c2ccccc2n1,,"inconclusive: 12.6 µM [cytotoxic, partial curve, poor fit]"
COc1ccc(-c2cc(N3CCCC(NC(=O)c4ccc(OC)cc4OC)C3)n[nH]2)cc1 (stereo not drawn),,"inconclusive: 12.6 µM [cytotoxic, partial curve, poor fit]"
O=C(c1nnc(COc2ccc(F)c(F)c2)n1-c1ccccc1)N1CCC[C@@H]1C(c1ccccc1)c1ccccc1,,"inconclusive: 22.4 µM [cytotoxic, partial curve, poor fit]"
CC(C)Cc1cc(CNc2nc(C(C)(C)C)nc3c2cnn3C)no1,,"inconclusive: 39.8 µM [cytotoxic, single point]"
CN(C)c1nccnc1OC1CCN(S(=O)(=O)Cc2ccccc2)C1 (stereo not drawn),inactive: -3.82%,
CCCCN(CC)C(=O)c1cc2c(=O)n3ccccc3nc2n1C,,"inconclusive: 22.4 µM [rising, partial curve, poor fit]"
Cc1ccc(-n2ncc(C(=O)Nc3ccc4c(c3)OCO4)c2C2CCN(C(=O)OC(C)(C)C)CC2)c(C)c1,,"inconclusive: 39.8 µM [cytotoxic, single point]"
Cc1ccc(-c2noc([C@@H]3Cc4nc[nH]c4CN3C(=O)Nc3ccccc3)n2)cc1,,"inconclusive: 28.2 µM [cytotoxic, partial curve, poor fit]"

Structure (SMILES),"activity change, negative = cytotoxicity",Potency
CN(C)c1ccc(C2C=C(c3ccccc3)Nc3nnnn32)cc1 (stereo not drawn),,"inconclusive: 28.2 µM [rising, single point]"
O=C(Nc1ccccc1)N1CCN(c2nccc(Nc3ccccc3F)n2)CC1,inactive: -17.7% [at 12.5 µM],
CCc1[nH]c2ccc(CNC(=O)[C@H]3[C@@H]4C=C[C@@]5(CN(C)C(=O)[C@@H]35)O4)cc2c1C,inactive: -9.82%,
COc1ccc(C[C@H](N)C(=O)NCc2c(C)ncc3c2CCNC3)cc1,,"inconclusive: 11.2 µM [cytotoxic, partial curve, poor fit]"
CC(C)c1ccc(NC(=O)c2cc(S(=O)(=O)NCc3ccccc3Cl)ccc2F)cc1,,"inconclusive: 25.1 µM [cytotoxic, single point]"
CCc1ccc(CN2CCC3(CC2)Cc2ccccc2CNC3=O)cc1,inactive: -18%,
COc1ccc(C(=O)N2C[C@@H]3C[C@H](C2)c2c(/C=C/c4ccc(Cl)cc4)ccc(=O)n2C3)cc1,,"inconclusive: 25.1 µM [cytotoxic, partial curve, poor fit]"
CN(C)c1nccnc1OC1CCN(C(=O)CC2CCCC2)C1 (stereo not drawn),inactive: -4.29%,
O=C(CCNC(=O)c1cnccn1)NC1CCCc2c1[nH]c1ccccc21 (stereo not drawn),inactive: 9.69%,
COc1ccc(S(=O)(=O)N(CC(=O)NCc2ccccc2)c2ccc(C)cc2)cc1OC,,"inconclusive: 39.8 µM [cytotoxic, partial curve, poor fit]"
COc1ccc(C2=CC(c3cccc(C)c3)n3nnnc3N2)cc1 (stereo not drawn),,"inconclusive: 31.6 µM [rising, partial curve]"
Cc1ccc(-c2ncc(NC(=O)c3ccc(F)c(F)c3)cn2)cc1,inactive: 0.127%,
CCOc1ccccc1C(=O)N1CCC(Cc2nc(-c3ccc(OC)cc3)no2)CC1,inactive: -16%,
CN1CCOc2c(C(=O)NCc3cnn(C)c3)cc(-c3ccccc3O)cc21,inactive: -9.02% [at 87.6 µM],
CCCOc1ccc(CN2C[C@@H](CO)[C@H](c3ccncc3)C2)cc1,,"inconclusive: 10 µM [cytotoxic, partial curve, poor fit]"
O=C(c1ccc(F)cc1)N1CCN(Cc2ccccc2-c2cccnc2)CC1,inactive: 10.7% [at 12.5 µM],
Cc1ccc(C(=O)N2CCN(c3nccc(Nc4ccccc4Cl)n3)CC2)cc1,,"inconclusive: 3.98 µM [rising, single point]"
O=c1n(-c2ccc(Cl)cc2)nc2n1CCN(Cc1ccsc1)C2,,"inconclusive: 28.2 µM [cytotoxic, partial curve, poor fit]"
Cc1ccc(S(=O)(=O)Nc2nc3n(n2)C(c2ccccc2Cl)C=C(c2ccccc2)N3)cc1 (stereo not drawn),,"inconclusive: 25.1 µM [rising, partial curve]"
COc1cccc(CNC(=O)CN2C(=O)COc3ccc(S(=O)(=O)Nc4ccccc4)cc32)c1,,"inconclusive: 15.8 µM [cytotoxic, partial curve, poor fit]"
CC1=C[C@@H](CN2CCN(c3ncccn3)CC2)[C@H](C(C)C)C[C@H]1Cc1nnc(-c2ccccc2F)o1,,"inconclusive: 28.2 µM [cytotoxic, single point]"

Structure (SMILES),"activity change, negative = cytotoxicity",Potency
COc1ccc(C)cc1NC(=O)CSc1ccc(-c2ccccn2)nn1,,"inconclusive: 28.2 µM [cytotoxic, partial curve, poor fit]"
CCOC(=O)c1ccc(OC(=O)CCCCCN=C(N)N)cc1,,"inconclusive: 21.5 µM [cytotoxic, partial curve, poor fit]"
CS(=O)(=O)N1CCC(C2CCN(C(=O)c3cccc(C#N)c3)C2)CC1 (stereo not drawn),inactive: 7.22% [at 12.5 µM],
CCN1CCN(Cc2c(O)ccc3c(C)c(-c4ccccc4)c(=O)oc23)CC1,,"inconclusive: 28.2 µM [rising, partial curve, poor fit]"
CNC(=O)c1sc2ncccc2c1-n1cccc1,,"inconclusive: 17.8 µM [cytotoxic, partial curve, poor fit]"
Cn1c(=O)n(-c2cccc(Cl)c2)c(=O)c2sc3ccccc3c21,,"inconclusive: 31.6 µM [cytotoxic, partial curve, poor fit]"
CN1C(=O)COC[C@@H]1[C@H](O)c1ccc(NC(=O)c2ccc3c(c2)OCO3)cc1,inactive: 5.68% [at 87.6 µM],
CN1C[C@@H](NC(=O)C2CCCCC2)C[C@H]1c1nc(-c2ccc(F)cc2)no1,inactive: -10.1% [at 87.6 µM],
CCn1nccc1C(=O)N1CCCN(S(C)(=O)=O)c2ccccc21,,"inconclusive: 14.1 µM [rising, partial curve]"
CC(C)(C)OC(=O)N1CCC(c2c(C(=O)Nc3ccc4c(c3)OCCO4)cnn2-c2ccccc2)CC1,,"inconclusive: 39.8 µM [cytotoxic, single point]"
CCNC(=O)N1CCCC(c2nc(-c3cccnc3)no2)CCNC(=O)CC1 (stereo not drawn),inconclusive: -44.6%,
CC1=C[C@@H](CNC(=O)c2ccccc2)[C@H](C(C)C)C[C@H]1CC(=O)N1CCCC1,,"inconclusive: 28.2 µM [cytotoxic, partial curve, poor fit]"
COc1cc2c(Nc3ccc(Cl)c(Cl)c3F)ncnc2cc1OCC1C[C@@H]2CN(C)C[C@H]2C1,,"inconclusive: 0.961 µM [cytotoxic, full curve, poor fit]"
C[S+](=O)([O-])c1ccc(-c2nc(C(=O)N3CCOCC3)n3ccncc23)cc1,,"inconclusive: 28.2 µM [rising, single point]"
O=C1CCCCN1CC(=O)N1CCCC(CCc2ccc(F)cc2F)C1 (stereo not drawn),inactive: 1.42%,
CO[C@H]1CN(C(C)C)[C@H]1C1CCN(C(=O)C2CC=CC2)CC1,,"inconclusive: 0.891 µM [cytotoxic, full curve, poor fit]"
Cn1cc(CN2CC3(COCC(=O)N(Cc4cccc(OC(F)(F)F)c4)C3)C2)cn1,inactive: -16.1% [at 87.6 µM],
COc1ccccc1-n1c(=O)c(C(=O)N2CCN(C(=O)c3ccc(F)cc3)CC2)nc2cccnc21,inactive: -7.85%,
Cc1ccc(-c2cc3c(=O)n(CCNC(=O)Cc4ccccc4Cl)ccn3n2)cc1C,inactive: -5.8%,
CC(C)=CCC1(CO)CCCN(Cc2[nH]c3ccc(F)cc3c2C)C1 (stereo not drawn),,"inconclusive: 25.1 µM [cytotoxic, single point]"
O=C([C@@H]1C[C@H](F)CN1S(=O)(=O)Cc1cccc(Cl)c1)N1CCCCC1,,"inconclusive: 39.8 µM [cytotoxic, single point]"
